This passage reports growth inhibition call results from the antibiotic and cytotoxicity screens of Wong et al. (2023).

The list shows a part of the results.

For this assay, the system named is S. aureus RN4220. Put plainly: growth inhibition call (relative growth <= 0.2). The following applies: 50 µM.
In the case of `Cc1ccc(S(=O)(=O)Nc2ccc3c(c2)CC(=O)N([C@@H](C)CO)C[C@@H](C)[C@H](CN(C)Cc2ccc(C(F)(F)F)cc2)O3)cc1`, the growth inhibition call was “inactive”.
`C[C@H]1CN([C@@H](C)CO)C(=O)Cc2cc(NS(=O)(=O)c3ccccc3)ccc2O[C@H]1CN(C)Cc1ccc2c(c1)OCO2`: the growth inhibition call was “inactive”.
In the case of `Cc1noc(C)c1NC(=O)N(C)C[C@@H]1OCCCC[C@@H](C)Oc2ccc(NC(=O)Nc3ccc4c(c3)OCO4)cc2C(=O)N([C@@H](C)CO)C[C@H]1C`, the growth inhibition call is “inactive”.
With `C[C@@H]1CCCCO[C@H](CN(C)C(=O)CCC(F)(F)F)[C@H](C)CN([C@H](C)CO)C(=O)c2cc(NS(=O)(=O)c3cccs3)ccc2O1`, the growth inhibition call is “inactive”.
Turning to `C[C@@H]1CN([C@@H](C)CO)C(=O)c2cc(NC(=O)CCN3CCOCC3)ccc2O[C@H]1CN(C)C(=O)NC1CCCCC1`, the growth inhibition call was “inactive”.
As to `C[C@H]1CN([C@@H](C)CO)C(=O)c2cc(-c3cccc(C(=O)N(C)C)c3)cnc2O[C@H]1CN(C)S(=O)(=O)c1cccc(F)c1`, the growth inhibition call was “inactive”.
Take `CCC(=O)NC[C@H](Cc1ccc(OCCc2nc(-c3ccccc3)oc2C)cc1)N/C(C)=C\C(=O)c1ccc(C(F)(F)F)cc1`: the growth inhibition call is “inactive”.
With `C[C@@H]1CN([C@@H](C)CO)C(=O)CCCn2cc(nn2)CO[C@H]1CN(C)Cc1cccc2c1OCCCO2` the entry was “inactive”.
With `Cc1noc(C)c1NC(=O)Nc1ccc2c(c1)CC(=O)N([C@@H](C)CO)C[C@@H](C)[C@H](CN(C)CC1CC1)O2`, the growth inhibition call is “inactive”.
On to `O=C(C[C@@H]1CC[C@@H]2[C@H](COC[C@H](O)CN2C(=O)CCN2CCCCC2)O1)NCCCN1CCOCC1`, for which the growth inhibition call was “inactive”.
